Experimental data published in the supplement of paper PMC3334620.
The full ranking holds about 33,000 sequences; the median of “E-score (-0.5 to 0.5)” is about -0.035, and the highest 2% start at about 0.35. The list shows a part of the results.

molecular target: T1, Pdr3 (UniProt P33200); assay: PBM E-score (8-mer binding enrichment) (E-score (-0.5 to 0.5)); higher = stronger / more preferred TF binding; most listed sequences are background and not binding sites; settings: protein concentration: 200 nM; construct: GST-full length
T1 sequence: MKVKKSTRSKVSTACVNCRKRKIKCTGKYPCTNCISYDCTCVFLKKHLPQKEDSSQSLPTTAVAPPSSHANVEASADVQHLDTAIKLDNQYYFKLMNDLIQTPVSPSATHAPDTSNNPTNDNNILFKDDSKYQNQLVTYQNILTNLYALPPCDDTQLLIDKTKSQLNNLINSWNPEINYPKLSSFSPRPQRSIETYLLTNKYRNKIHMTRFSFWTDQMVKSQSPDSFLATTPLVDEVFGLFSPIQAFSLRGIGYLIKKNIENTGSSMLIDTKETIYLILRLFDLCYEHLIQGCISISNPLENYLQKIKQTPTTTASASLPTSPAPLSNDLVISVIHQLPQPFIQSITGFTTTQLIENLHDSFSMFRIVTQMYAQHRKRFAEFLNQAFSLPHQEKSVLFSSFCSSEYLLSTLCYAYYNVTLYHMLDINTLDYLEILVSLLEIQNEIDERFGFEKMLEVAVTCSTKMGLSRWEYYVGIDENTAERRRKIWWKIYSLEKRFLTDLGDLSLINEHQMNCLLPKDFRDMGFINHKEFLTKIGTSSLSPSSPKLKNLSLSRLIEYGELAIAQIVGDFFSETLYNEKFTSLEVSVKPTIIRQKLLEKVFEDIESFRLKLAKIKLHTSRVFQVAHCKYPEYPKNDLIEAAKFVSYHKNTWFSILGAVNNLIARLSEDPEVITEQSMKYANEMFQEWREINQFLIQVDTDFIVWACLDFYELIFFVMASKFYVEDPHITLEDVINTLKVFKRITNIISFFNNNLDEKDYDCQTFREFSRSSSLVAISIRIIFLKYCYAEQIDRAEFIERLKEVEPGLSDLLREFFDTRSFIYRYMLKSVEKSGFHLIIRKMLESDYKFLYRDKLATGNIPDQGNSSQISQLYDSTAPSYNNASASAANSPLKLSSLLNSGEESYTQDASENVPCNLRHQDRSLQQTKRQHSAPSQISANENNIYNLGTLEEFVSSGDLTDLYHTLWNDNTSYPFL
Method in brief: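 Yeast transcription factors carrying a GST tag, as full-length proteins or DNA-binding domains, were produced by PURExpress in vitro transcription/translation. About 100-200 nM protein was applied to universal all-10-mer Agilent arrays, double-stranded by primer extension on fresh or once-stripped slides. Bound protein was detected with fluorescent anti-GST, and scans were normalised with masliner. The Universal PBM Analysis Suite gave each ungapped eight-base word, pooled with its reverse complement, an E-score, a modified Wilcoxon-Mann-Whitney statistic.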

How did the “PBM E-score” value turn out when ACACCAGG was run?
The value was -0.174.

For AAATCAAC, which “PBM E-score” value is on record?
Its value is -0.0285.

CTCGCTCC was tested. Which “PBM E-score” value did it give?
The value was 0.0762.

With CCACGGAC as the sequence, how does the “PBM E-score” value read?
Its value is 0.34.

How did the “PBM E-score” value turn out when CGAGCCAA was run?
The value was -0.0869.

How did the “PBM E-score” value turn out when AGCGAGCA was run?
Its value is -0.189.

How did the “PBM E-score” value turn out when GTCGCCTA was run?
Its value is -0.00145.

How did the “PBM E-score” value turn out when AGTCGCTA was run?
The value was -0.19.

How did the “PBM E-score” value turn out when CATAGCCA was run?
Its value is -0.0781.

Which “PBM E-score” value does the source give for CTAGGCCC here?
The value was -0.0722.

With AGCGGGTG as the sequence, how does the “PBM E-score” value read?
The value was 0.196.

For GATTACAC, which “PBM E-score” value is on record?
The value was -0.0894.

Which “PBM E-score” value does the source give for GCAAGGGA here?
The value was -0.0733.

ACCTTCAC was tested. Which “PBM E-score” value did it give?
The value was -0.185.

How did the “PBM E-score” value turn out when ATATTATC was run?
The value was 0.0315.

With CGATAATC as the sequence, how does the “PBM E-score” value read?
Its value is -0.0854.

How did the “PBM E-score” value turn out when ACGTCACC was run?
The value was -0.0162.

How did the “PBM E-score” value turn out when GTGGGACA was run?
Its value is -0.0693.

How did the “PBM E-score” value turn out when CAAGTCCC was run?
The value was -0.156.

GACCGTAC was tested. Which “PBM E-score” value did it give?
Its value is -0.152.

Which “PBM E-score” value does the source give for CACTGAAA here?
The value was -0.00018.

With ATGTCCAC as the sequence, how does the “PBM E-score” value read?
The value was 0.00618.

For ATCCTATA, which “PBM E-score” value is on record?
Its value is -0.0193.

With CACGGTGA as the sequence, how does the “PBM E-score” value read?
Its value is -0.0232.

CTCGGCGC was tested. Which “PBM E-score” value did it give?
The value was 0.279.

How did the “PBM E-score” value turn out when GAGACCTC was run?
Its value is -0.00248.

For CGCCATAG, which “PBM E-score” value is on record?
Its value is 0.00518.

ATAGCACC was tested. Which “PBM E-score” value did it give?
The value was -0.159.

AGGTCTTA was tested. Which “PBM E-score” value did it give?
Its value is -0.129.

For ATGTAAAG, which “PBM E-score” value is on record?
The value was -0.0504.

For CAGCATAG, which “PBM E-score” value is on record?
The value was -0.0785.

Which “PBM E-score” value does the source give for CAGAGTCG here?
The value was -0.0369.

Which “PBM E-score” value does the source give for ACGCAATG here?
Its value is -0.144.

For CGGCCATA, which “PBM E-score” value is on record?
The value was 0.0189.

With AGTACGCA as the sequence, how does the “PBM E-score” value read?
Its value is -0.199.

How did the “PBM E-score” value turn out when AAGAGACG was run?
The value was 0.123.

ATGTACCG was tested. Which “PBM E-score” value did it give?
The value was -0.0139.

AAGGAGTG was tested. Which “PBM E-score” value did it give?
The value was -0.0725.

How did the “PBM E-score” value turn out when ACCAATAT was run?
Its value is -0.00757.

How did the “PBM E-score” value turn out when CAGACTAA was run?
The value was -0.15.

Which “PBM E-score” value does the source give for CGGCTCTA here?
Its value is 0.111.

CTCAGAAA was tested. Which “PBM E-score” value did it give?
The value was -0.235.

Which “PBM E-score” value does the source give for CTTACCCC here?
Its value is -0.12.

ACTTGTTG was tested. Which “PBM E-score” value did it give?
Its value is -0.258.

For ACACACGC, which “PBM E-score” value is on record?
Its value is 0.057.

Which “PBM E-score” value does the source give for AACCGTGA here?
The value was -0.0553.

Which “PBM E-score” value does the source give for ACCTCGCA here?
The value was -0.164.

For AACAGCAA, which “PBM E-score” value is on record?
Its value is -0.0214.

How did the “PBM E-score” value turn out when CGCCAAGC was run?
The value was -0.163.

Which “PBM E-score” value does the source give for AGAGATAC here?
The value was -0.0254.

CAGGAGAG was tested. Which “PBM E-score” value did it give?
The value was -0.174.

With AGGGTGTC as the sequence, how does the “PBM E-score” value read?
The value was 0.0226.

With CCAAGAGG as the sequence, how does the “PBM E-score” value read?
The value was -0.122.

Which “PBM E-score” value does the source give for AGAGCAAA here?
The value was -0.2.

AAGATATA was tested. Which “PBM E-score” value did it give?
Its value is 0.0367.

CTGCAACA was tested. Which “PBM E-score” value did it give?
The value was 0.00937.

With CCTGTGTA as the sequence, how does the “PBM E-score” value read?
Its value is -0.178.

With ATCTATCA as the sequence, how does the “PBM E-score” value read?
Its value is 0.0254.

With ACTTCTGC as the sequence, how does the “PBM E-score” value read?
The value was 0.00267.

How did the “PBM E-score” value turn out when CATGACGC was run?
Its value is -0.0957.

Which “PBM E-score” value does the source give for ATTATGGG here?
The value was -0.101.

Which “PBM E-score” value does the source give for CAAGACCA here?
Its value is -0.133.

Which “PBM E-score” value does the source give for ATAGAATA here?
Its value is 0.0328.

For AAGGAGGC, which “PBM E-score” value is on record?
Its value is -0.192.

How did the “PBM E-score” value turn out when GTCTGCTA was run?
Its value is -0.156.

How did the “PBM E-score” value turn out when CCCCCTCG was run?
Its value is -0.156.

For ATGACAAG, which “PBM E-score” value is on record?
Its value is 0.0563.

With GAGCCTTA as the sequence, how does the “PBM E-score” value read?
The value was -0.217.

GACTTGGC was tested. Which “PBM E-score” value did it give?
The value was -0.212.

How did the “PBM E-score” value turn out when CGTCGGCC was run?
Its value is 0.143.

AATACTAT was tested. Which “PBM E-score” value did it give?
Its value is -0.0458.

CGCGGGGA was tested. Which “PBM E-score” value did it give?
Its value is 0.393.

How did the “PBM E-score” value turn out when ACCCGTAA was run?
Its value is 0.0102.

CCCTCGAC was tested. Which “PBM E-score” value did it give?
The value was 0.0464.

GTACGTAC was tested. Which “PBM E-score” value did it give?
The value was -0.133.

With GTCATTCA as the sequence, how does the “PBM E-score” value read?
Its value is -0.00308.

How did the “PBM E-score” value turn out when GCAAAACA was run?
The value was -0.0528.

ACGAGAGG was tested. Which “PBM E-score” value did it give?
Its value is -0.0206.

How did the “PBM E-score” value turn out when TACTTCTA was run?
The value was -0.195.

How did the “PBM E-score” value turn out when AATACAGA was run?
Its value is 0.0103.

Which “PBM E-score” value does the source give for CGTACATA here?
The value was -0.0758.

With ACCCGACT as the sequence, how does the “PBM E-score” value read?
Its value is 0.135.

GCGAATCC was tested. Which “PBM E-score” value did it give?
Its value is 0.0273.

With AAGCCGAG as the sequence, how does the “PBM E-score” value read?
Its value is 0.194.

AGCGGTCA was tested. Which “PBM E-score” value did it give?
Its value is 0.0481.

How did the “PBM E-score” value turn out when TCTATTCA was run?
Its value is -0.0967.
